For 10 compounds, log2 surviving fraction results are on record in the supplement of paper PMC8047034.

Structures can show the parent of a compound that is named as a salt. This is one part of the list. Many values rest on one well or one pass, so single values are uncertain.

One assay relates to OVCAR4. The experiment in a line: log2 surviving fraction (library drug vs vehicle, or drug + carboplatin vs carboplatin alone; relative to plate median); ovarian cancer lines: OVCAR4 is platinum-sensitive and Ov4Carbo platinum-resistant; higher = more cell survival. Conditions: library drug concentration 10 µM, 7 days.
The next assay relates to Ov4Carbo. The assay is described as above. Conditions: library drug concentration 10 µM, 7 days.

Turning to `CC1CCc2cc(F)cc3c(=O)c(C(=O)O)cn1c23` (stereo not given) [Flumequine], the log2 surviving fraction with OVCAR4 (carboplatin co-treatment 0 µM) is 0.633; in the assay on OVCAR4 (carboplatin co-treatment 5 µM) it was 0.142; in the assay on Ov4Carbo (carboplatin co-treatment 0 µM), 0.21; in the assay on Ov4Carbo (carboplatin co-treatment 5 µM), 0.782.

Consider `CC(C)(Sc1cc(C(C)(C)C)c(O)c(C(C)(C)C)c1)Sc1cc(C(C)(C)C)c(O)c(C(C)(C)C)c1` [Probucol], for which the log2 surviving fraction in the assay with OVCAR4 (carboplatin co-treatment 0 µM) was -0.327; in the assay with OVCAR4 (carboplatin co-treatment 5 µM), -0.577; in the assay on Ov4Carbo (carboplatin co-treatment 0 µM), -0.283; with Ov4Carbo (carboplatin co-treatment 5 µM), -0.268.

Regarding `CCOC(=O)C1=C(C)NC(C)=C(C(=O)OC)C1c1cccc(Cl)c1Cl` (stereo not given) [Felodipine (Plendil)], the log2 surviving fraction in the assay with OVCAR4 (carboplatin co-treatment 0 µM) is -0.397; in the assay with OVCAR4 (carboplatin co-treatment 5 µM) it was -1.48; in the assay with Ov4Carbo (carboplatin co-treatment 0 µM) it was 0.0166; with Ov4Carbo (carboplatin co-treatment 5 µM), 0.0587.

For the compound `CCC(NC(C)C)C(O)c1ccc(O)c(O)c1` (stereo not given) [Isoetharine Mesylate], the log2 surviving fraction in the assay on OVCAR4 (carboplatin co-treatment 0 µM) is -0.753; with OVCAR4 (carboplatin co-treatment 5 µM) it was -0.308; with Ov4Carbo (carboplatin co-treatment 0 µM) it was -1.11; in the assay on Ov4Carbo (carboplatin co-treatment 5 µM) it was -0.282.

As for `CCn1nc(C(=O)O)c(=O)c2cc3c(cc21)OCO3` [Cinoxacin], the log2 surviving fraction is 0.41 in the assay on OVCAR4 (carboplatin co-treatment 0 µM), 0.328 in the assay on OVCAR4 (carboplatin co-treatment 5 µM), -0.637 with Ov4Carbo (carboplatin co-treatment 0 µM) and 0.0234 in the assay on Ov4Carbo (carboplatin co-treatment 5 µM).

As to `O=S(=O)(O)c1cc(O)ccc1O` [Ethamsylate], the log2 surviving fraction is -0.129 in the assay on OVCAR4 (carboplatin co-treatment 0 µM), 0.599 in the assay on OVCAR4 (carboplatin co-treatment 5 µM), 0.733 in the assay with Ov4Carbo (carboplatin co-treatment 0 µM) and 0.877 with Ov4Carbo (carboplatin co-treatment 5 µM).

Take `Fc1ccc(C(c2ccc(F)cc2)N2CCN(C/C=C/c3ccccc3)CC2)cc1` [Flunarizine 2HCl]: the log2 surviving fraction in the assay with OVCAR4 (carboplatin co-treatment 0 µM) was -1.43; in the assay on OVCAR4 (carboplatin co-treatment 5 µM), -2.35; in the assay on Ov4Carbo (carboplatin co-treatment 0 µM) it was -1.66; with Ov4Carbo (carboplatin co-treatment 5 µM), -2.85.

On to `C=C1CC[C@@]2(O)[C@H]3Cc4ccc(O)c5c4[C@@]2(CCN3CC2CC2)[C@H]1O5` [Nalmefene HCl], for which the log2 surviving fraction with OVCAR4 (carboplatin co-treatment 0 µM) is -0.286; in the assay with OVCAR4 (carboplatin co-treatment 5 µM), -0.265; in the assay with Ov4Carbo (carboplatin co-treatment 0 µM), -0.24; in the assay with Ov4Carbo (carboplatin co-treatment 5 µM), 0.0544.

Regarding `CCCc1cc(=O)[nH]c(=S)[nH]1` [Propylthiouracil], the log2 surviving fraction was 0.0933 in the assay with OVCAR4 (carboplatin co-treatment 0 µM), 1.29 with OVCAR4 (carboplatin co-treatment 5 µM), -0.986 with Ov4Carbo (carboplatin co-treatment 0 µM) and 1.8 in the assay with Ov4Carbo (carboplatin co-treatment 5 µM).

Consider `Cc1ccccc1C(OCCN(C)C)c1ccccc1` (stereo not given) [Orphenadrine citrate (Norflex)], for which the log2 surviving fraction with OVCAR4 (carboplatin co-treatment 0 µM) is 0.994; in the assay with OVCAR4 (carboplatin co-treatment 5 µM), -1.58; with Ov4Carbo (carboplatin co-treatment 0 µM), -0.155; with Ov4Carbo (carboplatin co-treatment 5 µM), 0.718.
